Experimental data: the supplement of paper PMC10126150
Values marked as one replicate rest on one cluster of the flow cell; about a third of the high ones do not repeat.

System: ATP
Assay: switch fluorescence ratio, 500 uM ATP over buffer (Cy3 cluster intensity, sum of 5 cycles each) (fold (ratio)); higher = stronger signal-on switching upon ATP binding; sequences stand for … in TCGTCGGCAGCGTCAGATGTGTATAAGAGACAGTTTTTTTTTTTTTTTTTTTTTTTTT…TC
Conditions: aptamer strand: ATP DNA aptamer (quencher-CACCTGGGGGAGTATTGCGGAGGAAGG + anchor), 100 nM annealed; ATP concentration: 500 uM; one replicate
Summary of the method: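 The fluorescence ratio divides summed target-cycle Cy3 intensity by summed buffer-cycle Cy3 intensity for each cluster and is averaged per switch-domain sequence. Cy3-labelled switching-strand clusters on a modified Illumina MiSeq flow-cell were annealed to 100 nM quencher-labelled ATP aptamer, then imaged in selection buffer and again after 15 min with 500 uM ATP at 22 °C. Five such cycles were run, with NaOH stripping and re-annealing between them, and clusters outside 100-1000 RFU were excluded.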
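Also: ATP exposure 15 min at 22 °C before imaging.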

## GTTTAGACAG
  switch fluorescence ratio: 0.994

## AGCTCTAGGC
  switch fluorescence ratio: 0.997

## CAATGTACCT
  switch fluorescence ratio: 1.26

## TGCGATGTAC
  switch fluorescence ratio: 1.4

## CATTCAAAGC
  switch fluorescence ratio: 1.03

## GGTGGCTATT
  switch fluorescence ratio: 0.993

## TAGCGCCCTC
  switch fluorescence ratio: 1.12

## TCAGGGGAAA
  switch fluorescence ratio: 1.02

## GGATAACCTT
  switch fluorescence ratio: 1.66

## GCTTAAGATG
  switch fluorescence ratio: 0.958

## GATGCCAAGT
  switch fluorescence ratio: 1.01

## TTAATCCGTG
  switch fluorescence ratio: 1.03

## CAGTTATGA
  switch fluorescence ratio: 1.01

## ATGGGCCTGT
  switch fluorescence ratio: 0.976

## GGGAACGCGT
  switch fluorescence ratio: 0.883

## TACTCCATTT
  switch fluorescence ratio: 1.03

## TGAGCTGAAG
  switch fluorescence ratio: 1.11

## AATGGGTAGG
  switch fluorescence ratio: 0.98

## GTGTGGCTTT
  switch fluorescence ratio: 1.01

## ACATTCGCGG
  switch fluorescence ratio: 1.08

## GAATATCTAT
  switch fluorescence ratio: 0.994

## TGTGAAGGCA
  switch fluorescence ratio: 0.969

## ATTTTACTCA
  switch fluorescence ratio: 0.998

## GTTGCAACTG
  switch fluorescence ratio: 1.02

## CGTTGTCTGG
  switch fluorescence ratio: 1.01

## TTAATCTGG
  switch fluorescence ratio: 0.974

## GTAGCTCGTC
  switch fluorescence ratio: 0.954

## TGATAACCGT
  switch fluorescence ratio: 1.02

## TGTCATATC
  switch fluorescence ratio: 1.06

## TTTTAGCACC
  switch fluorescence ratio: 1.15

## TCCTGCAGAG
  switch fluorescence ratio: 1.65

## TGACTATTGC
  switch fluorescence ratio: 1.1

## GCTCTTATTG
  switch fluorescence ratio: 1.01

## CTGGCAAAGG
  switch fluorescence ratio: 0.995

## GGATTCAAGT
  switch fluorescence ratio: 1.03

## CATAACGATA
  switch fluorescence ratio: 1.05

## CAGTAGGGGC
  switch fluorescence ratio: 1.01

## AAAAGAAACA
  switch fluorescence ratio: 1.14

## AAGTTGTGGA
  switch fluorescence ratio: 0.996

## CGTGAAAATA
  switch fluorescence ratio: 1.01

## GCGGTGACAT
  switch fluorescence ratio: 0.995

## GTGACTTGTT
  switch fluorescence ratio: 1.01

## AAGTATGTGA
  switch fluorescence ratio: 0.998

## CTGGTTGTAA
  switch fluorescence ratio: 0.987

## GACGTAGGC
  switch fluorescence ratio: 1.01

## GGTCCCGGCA
  switch fluorescence ratio: 0.971

## ATGACATGAG
  switch fluorescence ratio: 0.985

## ATATACATAT
  switch fluorescence ratio: 1.1

## CGTATGATAC
  switch fluorescence ratio: 1.3

## GTGTGAAGAT
  switch fluorescence ratio: 1.04

## ACAGGGACGT
  switch fluorescence ratio: 1.05

## TTTCTCCTTA
  switch fluorescence ratio: 1

## TTTCAGGAGG
  switch fluorescence ratio: 1.01

## GGAAATCATA
  switch fluorescence ratio: 1.05

## GATACCTGGA
  switch fluorescence ratio: 1.06

## ATTGAAAGAT
  switch fluorescence ratio: 1.01

## GCTAAGGGGT
  switch fluorescence ratio: 0.977

## TTGGGAAACC
  switch fluorescence ratio: 1.07

## TGCTGGTCGA
  switch fluorescence ratio: 1

## GAGACTCGGA
  switch fluorescence ratio: 1

## GCCTTTTTC
  switch fluorescence ratio: 1.06

## CCATCATTGT
  switch fluorescence ratio: 0.991

## AAGAGATGCC
  switch fluorescence ratio: 0.961

## TTCAATCGGA
  switch fluorescence ratio: 1.01

## CGGCAATGT
  switch fluorescence ratio: 3.46

## TTGTCCAGGG
  switch fluorescence ratio: 1.23

## CGAACCTAGC
  switch fluorescence ratio: 1.21

## TATTACAGTT
  switch fluorescence ratio: 0.965

## GATCTTCCAA
  switch fluorescence ratio: 1.01

## AAAGAAGCTG
  switch fluorescence ratio: 1.04

## TCCTTTAAAC
  switch fluorescence ratio: 1.05

## GGGTCGGGTC
  switch fluorescence ratio: 1.02

## AATCCCAATT
  switch fluorescence ratio: 1.02

## TAGAAGGTTT
  switch fluorescence ratio: 0.971

## CCGGGAATAA
  switch fluorescence ratio: 1.37

## ATTAAATGGT
  switch fluorescence ratio: 0.979

## TCGTAATTTG
  switch fluorescence ratio: 0.997

## CGGTGATGAG
  switch fluorescence ratio: 1.04

## GTGTGTCGG
  switch fluorescence ratio: 1.03

## GTTGATTGAT
  switch fluorescence ratio: 0.981

## AGCTCTCTCA
  switch fluorescence ratio: 1.03

## CCGTACAGTC
  switch fluorescence ratio: 1.44

## CCCGGAATGG
  switch fluorescence ratio: 1.06

## CTAAATACTT
  switch fluorescence ratio: 1.06

## AGTTAAGTAG
  switch fluorescence ratio: 0.971

## GGGCTGATTT
  switch fluorescence ratio: 1

## AGGATGGGAC
  switch fluorescence ratio: 1.02

## GATCAAGAAC
  switch fluorescence ratio: 1.02

## CTAAATGTGC
  switch fluorescence ratio: 1.02

## GAGCCTTGTG
  switch fluorescence ratio: 0.999

## TAGGCCCCGA
  switch fluorescence ratio: 1

## CTATTTGCTC
  switch fluorescence ratio: 1.02

## TTGTCGAACG
  switch fluorescence ratio: 1.05

## TCTCTATAT
  switch fluorescence ratio: 1.02

## CAGAACTTGC
  switch fluorescence ratio: 1.07

## GTCGGCGTCC
  switch fluorescence ratio: 0.966

## GTAATCCGGT
  switch fluorescence ratio: 0.977

## CGGCGCCAAG
  switch fluorescence ratio: 1.01

## GTTTTTCCC
  switch fluorescence ratio: 0.954

## CCATGGTCCC
  switch fluorescence ratio: 1.02

## GCGAACTATT
  switch fluorescence ratio: 1.04

## CACTAAAGGA
  switch fluorescence ratio: 0.999

## GGAGTCGAGC
  switch fluorescence ratio: 0.98

## TCTAGCTGGT
  switch fluorescence ratio: 1.01

## TAAAGCTTA
  switch fluorescence ratio: 1

## TTTAGCGACC
  switch fluorescence ratio: 1.12

## AGTAATTTTC
  switch fluorescence ratio: 1

## AGCGCCGTGC
  switch fluorescence ratio: 1.03

## AGTCCGTCAT
  switch fluorescence ratio: 1.02

## AATTTTTGG
  switch fluorescence ratio: 1.27

## TCCGGTTAAT
  switch fluorescence ratio: 1.06

## TTTTACCTT
  switch fluorescence ratio: 1.14

## TATGTTATGG
  switch fluorescence ratio: 1.03

## TAGTTGGTTA
  switch fluorescence ratio: 0.981

## AGCAACAGGT
  switch fluorescence ratio: 1.07

## GATGCGGACC
  switch fluorescence ratio: 1.09

## TGGTCGATCG
  switch fluorescence ratio: 0.926

## GAGTTGTAGG
  switch fluorescence ratio: 1.01

## TAAAGGAGAG
  switch fluorescence ratio: 1.02

## AGACTGCCC
  switch fluorescence ratio: 1.11

## GACTTCAACT
  switch fluorescence ratio: 1.06

## CGTCGGTCTC
  switch fluorescence ratio: 0.993

## CTTCAGGAGG
  switch fluorescence ratio: 1.02

## TATAGCAAAG
  switch fluorescence ratio: 1.07

## GAGAGGCTCG
  switch fluorescence ratio: 0.979

## GGTCTTGCG
  switch fluorescence ratio: 0.933

## CTGACTCAGC
  switch fluorescence ratio: 1.88

## CGGGGAATTC
  switch fluorescence ratio: 0.995

## GGCCGGCGCA
  switch fluorescence ratio: 0.99

## AGCAGTCCGT
  switch fluorescence ratio: 1.02

## GGGGACGCA
  switch fluorescence ratio: 1.1

## TTTCATTCAT
  switch fluorescence ratio: 0.969

## TTCCATCTGA
  switch fluorescence ratio: 1.06

## TGCAAACTCA
  switch fluorescence ratio: 1.55

## GTGGTCCTAA
  switch fluorescence ratio: 0.971

## CCACCAGCGT
  switch fluorescence ratio: 2.22

## TGAATCAAGT
  switch fluorescence ratio: 1.01

## ACTCTACCTA
  switch fluorescence ratio: 1.26

## GATGTGGGG
  switch fluorescence ratio: 0.963

## CTTGCTAAC
  switch fluorescence ratio: 1.26

## AGGTCTGAC
  switch fluorescence ratio: 0.964

## TGAACAATAT
  switch fluorescence ratio: 1.03

## ATTGCTTGAT
  switch fluorescence ratio: 0.99

## TTCTTGAAT
  switch fluorescence ratio: 0.984

## TATTAGCTAG
  switch fluorescence ratio: 1

## ATTCCAGTGG
  switch fluorescence ratio: 0.989

## TCGCATGAAA
  switch fluorescence ratio: 0.996

## AAATGGCACT
  switch fluorescence ratio: 1.05

## TGCAATTCG
  switch fluorescence ratio: 1.38

## GGCGATAATG
  switch fluorescence ratio: 0.969

## GGGTGTCGGC
  switch fluorescence ratio: 0.976

## GACCGCGAAG
  switch fluorescence ratio: 1.03

## TGGTTGGGC
  switch fluorescence ratio: 0.957

## ATTGCTATAT
  switch fluorescence ratio: 1.04

## CGTCCCCTT
  switch fluorescence ratio: 3.29

## TGAGGCTTGG
  switch fluorescence ratio: 0.946

## CACGGGCCAT
  switch fluorescence ratio: 1.04

## CCAATCAGAG
  switch fluorescence ratio: 0.924
